Potency data for 58 compounds are collected here from PubChem BioAssay AID360 (National Center for Advancing Translational Sciences (NCATS), 2006).

Out of some 48,000 compounds screened, about 550 (1.1%) were called active. Roughly 4% stayed inconclusive and do not appear here. Cut-off read from the data, not from the text of the source: active = potency below about 15 µM; inconclusive = mostly about 16 µM to 33 µM; inactive = weaker than that. The list shows a part of the results. Some results are limits rather than exact numbers.
Potency is the fitted concentration of half-maximal effect.

This assay has as its target Lysosomal acid glucosylceramidase (Homo sapiens) (UniProt P04062). Nature of the assay: Glucocerebrosidase.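 Note: the screen sought inhibitors.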 The note with it: purified enzyme, resorufin glucoside fluorescence (screen aimed at inhibitors), 20 min; series mostly up to 77 µM. An outline of the steps: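 Wild-type enzyme at 0.2 nM final in 50mM citric acid/KH2PO4, 10mM sodium taurocholate, 0.01% tween-20, pH 5.9, with resorufin beta-D-glucopyranoside at 30 uM final. Compounds titrated, 20 min at RT, red fluorescence read; AC50 from titration.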
Chain of UniProt P04062 (P04062 whole entry, looked up): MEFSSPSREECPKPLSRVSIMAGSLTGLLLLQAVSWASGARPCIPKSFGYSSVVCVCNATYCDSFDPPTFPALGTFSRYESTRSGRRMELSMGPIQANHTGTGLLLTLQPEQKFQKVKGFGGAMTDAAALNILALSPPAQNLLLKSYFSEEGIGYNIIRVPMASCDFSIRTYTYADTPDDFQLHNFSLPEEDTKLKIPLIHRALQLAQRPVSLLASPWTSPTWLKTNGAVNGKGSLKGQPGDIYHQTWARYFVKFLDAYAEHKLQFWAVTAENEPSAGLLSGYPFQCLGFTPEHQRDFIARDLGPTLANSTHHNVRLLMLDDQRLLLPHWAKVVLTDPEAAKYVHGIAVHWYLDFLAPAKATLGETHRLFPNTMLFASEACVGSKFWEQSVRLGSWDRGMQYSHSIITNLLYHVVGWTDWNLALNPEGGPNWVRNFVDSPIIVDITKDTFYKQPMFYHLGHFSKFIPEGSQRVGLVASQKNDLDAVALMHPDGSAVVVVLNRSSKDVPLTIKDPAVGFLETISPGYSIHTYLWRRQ
Turning to `CCNC(=O)N1CCNC(=O)C1CC(=O)Nc1ccc(C(=O)OCC)cc1` (stereo not drawn), the Potency is inactive: > 76.9 µM. Consider `COc1ccc(-c2cc(C(=O)Nc3c(C)nn(Cc4ccccc4Cl)c3C)no2)cc1OC`, for which the Potency was inactive: > 76.9 µM. `O=C(CSCC(=O)NCc1ccco1)NCc1ccco1`: the Potency is inactive: > 76.9 µM.

`Cc1ccc2c(c1)C1CN(C)CCC1N2CC(=O)N(C)c1ccccc1` (stereo not drawn): the Potency was inactive: > 76.9 µM. With `CCCCn1c(SCC(=O)NCc2ccco2)nnc1-c1ccco1` the figure was inactive: > 76.9 µM; with `Cc1cc(C)c2c(CC(=O)N(CCC#N)Cc3cccnc3)coc2c1`, inactive: > 76.9 µM.

As to `CCn1cc(C(=O)NCCOC)c(=O)c2ccc(C)nc21`, the Potency was inactive: > 76.9 µM. As for `CNc1oc(-c2cccc3ccccc23)nc1C#N`, the Potency is inactive: > 76.9 µM. With `CC(=O)Nc1ccc2c(c1)CCCN2C(=O)c1ccccc1` the figure was inactive: > 76.9 µM; with `Cc1cc(C)c2c(c1)cc(C)c1nnc(SCC(=O)Nc3cc(C)on3)n12`, inactive: > 76.9 µM. With `CC(C)COC(=O)c1nnsc1NC(=O)Nc1ccccc1` the figure was inactive: > 76.9 µM; with `Clc1ccc(C(c2nnnn2C2CCCC2)N2CCN(Cc3ccncc3)CC2)cc1` (stereo not drawn), inactive: > 76.9 µM; with `Cc1cc(Nc2ccc(C)c(F)c2)n2ncnc2n1`, inactive: > 76.9 µM. Take `CC(C)(C)NS(=O)(=O)c1ccc(OCC(=O)Nc2ccc3c(c2)OCCO3)cc1`: the Potency is inactive: > 76.9 µM. In the case of `CC(C)(C)c1ccc(S(=O)(=O)n2c(CN3CCOCC3)nc3ccccc32)cc1`, the Potency is inactive: > 76.9 µM. Regarding `O=c1c2cc(Cl)ccc2[nH]c(=S)n1Cc1ccco1`, the Potency was inactive: > 76.9 µM.

Turning to `COc1cc(C)c(C(C)C)cc1S(=O)(=O)N1CCOCC1`, the Potency is inactive: > 76.9 µM. On to `O=C(CCN1C(=O)C2C3C=CC(C3)C2C1=O)Nc1ccc2c(c1)OCO2` (stereo not drawn), for which the Potency is inactive: > 76.9 µM. Consider `COc1ccc(S(=O)(=O)Nc2ccc(O)c3ccccc23)cc1`, for which the Potency was inactive: > 76.9 µM. With `CC1Cc2ccccc2N1C(=O)CSc1nnc(NC(=O)Cc2cccs2)s1` (stereo not drawn) the figure was inactive: > 76.9 µM.

As to `CCC(=O)N1CCc2cc(Br)cc(S(=O)(=O)CCC(=O)NCc3ccco3)c21`, the Potency is inactive: > 76.9 µM.

`CC(C)OCCCn1c(-c2ccco2)nc2nc3ccccc3nc21`: the Potency was inactive: > 76.9 µM. With `CCNc1nc(N)nc(Oc2ccc(C(=O)OC)cc2)n1` the figure was inactive: > 76.9 µM; with `C[C@@H](Nc1nc(-c2ccccc2)nc2c1oc1ccccc12)C(=O)O`, inactive: > 76.9 µM; with `O=C(CSc1ccccc1Cl)c1ccco1`, inactive: > 76.9 µM. With `c1coc(CSCc2cn3cccnc3n2)c1` the figure was inactive: > 76.9 µM.

`CCOC(=O)C1CCN(C(=O)Nc2ccc(OC)c(OC)c2)CC1`: the Potency was inactive: > 76.9 µM. For `COc1ccc2c(c1)cc1n2CCN=C1N`, the Potency entry was “inactive”.

Take `COc1ccccc1CNc1n[nH]c(NCc2ccccc2OC)n1`: the Potency was inactive: > 76.9 µM. For `CC(=O)c1ccc(OCC(C)C)c(CN2CCCCC2)c1`, the Potency was inactive: > 76.9 µM. With `O=C(CC1SC2=NCCN2C1=O)Nc1ccc(Br)cc1` (stereo not drawn) the figure was inactive: > 76.9 µM; with `O=C(Cn1cc(C(F)(F)F)ccc1=O)N1CCN(S(=O)(=O)c2ccc(Cl)cc2)CC1`, inactive: > 76.9 µM.

As for `N=c1c2c(-c3ccccc3)c(-c3ccccc3)oc2ncn1CCCN1CCOCC1`, the Potency entry is “inactive”. Take `O=S(=O)(NCCNS(=O)(=O)c1cccs1)c1cccs1`: the Potency is inactive: > 76.9 µM. With `CCCCNC(=O)c1cn(C)c2ccc(S(=O)(=O)N3CCOCC3)cc2c1=O` the figure was inactive: > 76.9 µM; with `Cn1c(SCc2ccccn2)nnc1-c1ccncc1`, inactive: > 76.9 µM; with `CCCCC(c1nnnn1CS(=O)(=O)c1ccc(C)cc1)N1CCN(c2ccccc2)CC1` (stereo not drawn), inactive: > 76.9 µM. With `Cc1ccc(NC(=O)CSc2nnc(CSc3nc(C)cc(C)n3)n2Cc2ccco2)c(C)c1` the figure was inactive: > 76.9 µM; with `CCOC(=O)c1ccc2c(c1)N(CC(=O)N1CCCC1)C(=O)C(C)(C)O2`, inactive: > 76.9 µM. Regarding `O=C(NCc1ccc2c(c1)OCO2)c1cccc(S(=O)(=O)N2CCOCC2)c1`, the Potency is inactive: > 76.9 µM.

With `CC1CCc2nc(NC(=O)CN3CCN(Cc4ccc5c(c4)OCO5)CC3)sc2C1` (stereo not drawn), the Potency is inactive: > 76.9 µM.

Consider `Cc1cc(C(=O)N(C2CCCCC2)C2CCCCC2)no1`, for which the Potency was inactive: > 76.9 µM.

Consider `COc1ccc(C(=O)Nc2ccc(OC)c(OC)c2)cc1`, for which the Potency is inactive: > 76.9 µM. With `CCOc1ccc(C(=O)Nc2cc(C)on2)cc1OCC` the figure was inactive: > 76.9 µM; with `O=C(N1CCOCC1)N1CCN(Cc2ccccc2)CC1`, inactive: > 76.9 µM; with `CCCSc1nc2c(c(=O)[nH]c(=O)n2C)n1Cc1ccc(C)cc1`, inactive: > 76.9 µM. With `Cc1ccc(C(=O)Nc2cnc3sc(C)nn3c2=O)cc1` the figure was inactive: > 76.9 µM. For the compound `CCOC(=O)N1CCC(N2C(=O)c3ccc(C(=O)O)cc3C2=O)CC1`, the Potency is inactive: > 76.9 µM. With `Cc1cc(C)c(C#N)c(SCC(=O)N2CCCCC2)n1` the figure was inactive: > 76.9 µM.

Consider `Cc1cc(C)n(-c2ccc(C(=O)Oc3ccc4c(c3)OCO4)cc2)n1`, for which the Potency was inactive: > 76.9 µM. With `CN(Cc1nc(-c2cccnc2)no1)S(=O)(=O)c1ccc2ccccc2c1` the figure was inactive: > 76.9 µM. As to `COc1ccc(C(=O)CN2CCN(c3ccc(F)cc3)CC2)cc1OC`, the Potency is inactive: > 76.9 µM.

Consider `COc1cccc(C(=O)N2CCN(C(=O)c3cccs3)CC2)c1OC`, for which the Potency is inactive: > 76.9 µM. With `Cc1ccccc1Nc1nc(N)nc(COC(=O)CCS(=O)(=O)c2ccccc2)n1`, the Potency was inactive: > 15.4 µM.

As to `O=C(c1cc2ncc(Br)cn2n1)N1CCN(C(=O)c2ccco2)CC1`, the Potency is inactive: > 76.9 µM.

On to `COc1cc2c(cc1OC)CN(C(=O)COc1ccc(C#N)cc1)CC2`, for which the Potency is inactive: > 76.9 µM.

As to `Cc1ccc2[nH]c(=O)c(C(c3nnnn3C(C)(C)C)N(Cc3ccco3)CC3CCCO3)cc2c1` (stereo not drawn), the Potency is inactive: > 76.9 µM. With `O=C(CN1C(=O)c2ccccc2S1(=O)=O)N1CCc2ccccc2C1` the figure was inactive: > 76.9 µM.
